According to the supplement of paper PMC4166925:
± gives the standard deviation of the averaged measurements. The full ranking holds about 33,000 sequences; the median of “E-score (dimensionless, -0.5 to 0.5)” is about -0.046, and the highest 2% start at about 0.36. This is one part of the list.

Tested on: T1, SpTbr T-box DNA-binding domain (GST fusion)
T1 sequence: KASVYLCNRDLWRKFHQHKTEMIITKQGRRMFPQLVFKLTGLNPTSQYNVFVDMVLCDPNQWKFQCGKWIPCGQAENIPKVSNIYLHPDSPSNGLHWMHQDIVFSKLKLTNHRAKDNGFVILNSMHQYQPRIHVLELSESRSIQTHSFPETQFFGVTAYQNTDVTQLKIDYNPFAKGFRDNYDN
Assay: PBM E-score of 8-mer (E-score (dimensionless, -0.5 to 0.5)); Tbr is Tbrain of the sea star Patiria miniata (Pm) or the sea urchin Strongylocentrotus purpuratus (Sp); higher = stronger binding preference; most listed sequences are background and not binding sites
Details: the construct has about 5 more residues each side
In short: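 GST-fused Tbr T-box DNA-binding domains (the whole T-box plus about five flanking residues) were expressed in BL21 E. coli at 20 °C and purified by glutathione affinity chromatography. Universal Agilent oligonucleotide arrays were made double-stranded by primer extension, incubated with 200 nM protein in PBS (pH 7.5), then scanned and quantified. Every ungapped 8-mer was scored from probe intensities. The Universal PBM Analysis Suite gave each word an enrichment E-score, averaged over duplicate arrays.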

Row | Sequence | PBM E-score of 8-mer
1 | CCAGAGTA | -0.1903 ± 0.00049
2 | GGAGAGTA | -0.181 ± 0.038
3 | CACTTATA | 0.169 ± 0.011
4 | TCTTAGAA | -0.174 ± 0.0046
5 | ACCATCGC | 0.184 ± 0.056
6 | ACTTTTGA | -0.0941 ± 0.084
7 | ACAATACG | 0.00636 ± 0.045
8 | CGACTTCA | 0.0761 ± 0.038
9 | ACACACTG | 0.143 ± 0.0015
10 | AGGATTGG | -0.0109 ± 0.032
11 | CCCAACCG | -0.123 ± 0.026
12 | CACAAGTA | 0.136 ± 0.028
13 | AACCGCTC | -0.0893 ± 0.047
14 | AGAGATCG | 0.0319 ± 0.044
15 | AGAAGCAA | -0.102 ± 0.078
16 | AATCCACT | -0.181 ± 0.026
17 | GCCTCGCA | 0.119 ± 0.022
18 | CATGTAAG | 0.0432 ± 0.022
19 | CTAAGGCC | -0.257 ± 0.059
20 | CCGAGGAA | -0.274 ± 0.065
21 | ACGTGTCT | 0.204 ± 0.034
22 | CGATGGGA | -0.181 ± 0.087
23 | CCAGGGAA | -0.149 ± 0.05
24 | GTGTCACA | 0.436 ± 0.011
25 | ACGTTACC | 0.0489 ± 0.019

Row | Sequence | PBM E-score of 8-mer
26 | TGGGTTAA | -0.0208 ± 0.0051
27 | ACACCTGG | 0.44 ± 0.029
28 | GAAGGTCC | -0.148 ± 0.022
29 | GGTCAATA | -0.216 ± 0.074
30 | ATGGTTCG | 0.126 ± 0.032
31 | GCAGCAGC | -0.0756 ± 0.038
32 | ACGTACAG | 0.0581 ± 0.0014
33 | ACGACGCG | 0.105 ± 0.1
34 | CACTGTGG | -0.142 ± 0.096
35 | GCACATCA | 0.135 ± 0.035
36 | TAGACTAA | -0.229 ± 0.035
37 | AGGAGATG | -0.0796 ± 0.025
38 | CGTTGATA | 0.0605 ± 0.049
39 | GGGCCAAA | -0.158 ± 0.0097
40 | GTTCCAGA | -0.235 ± 0.0034
41 | ATTCAATC | 0.0196 ± 0.053
42 | GAGTTGGC | 0.0652 ± 0.087
43 | CCGGAAGA | -0.0281 ± 0.014
44 | AGTAAGGC | 0.0629 ± 0.074
45 | AAACCATC | -0.0776 ± 0.02
46 | AACCGACG | -0.0597 ± 0.014
47 | CCCCAATA | -0.0532 ± 0.049
48 | AGTTCTAA | -0.1082 ± 0.00016
49 | ACCACGCA | -0.00904 ± 0.12
50 | CATACGCC | -0.0482 ± 0.023

Row | Sequence | PBM E-score of 8-mer
51 | AGTGACTC | -0.0563 ± 0.09
52 | CTAGTGTC | 0.205 ± 0.017
53 | AGGACGTG | 0.162 ± 0.012
54 | GTTCTCGA | 0.153 ± 0.004
55 | AATTAATT | -0.0217 ± 0.12
56 | GTTCGATA | -0.109 ± 0.079
57 | TAAGTCGA | 0.059 ± 0.049
58 | ATCCGGGC | -0.22 ± 0.081
59 | AATCCCCG | -0.0831 ± 0.043
60 | AGGCCCCC | -0.346 ± 0.0094
61 | CTGGATAA | -0.167 ± 0.056
62 | GCTTTTTA | 0.041 ± 0.1
63 | ACTTATGA | -0.0354 ± 0.033
64 | ACGTGAGA | 0.3312 ± 0.0033
65 | AAAGGTCC | 0.0265 ± 0.0014
66 | AGAGAGTG | 0.178 ± 0.032
67 | ACCTTGGA | 0.188 ± 0.022
68 | CGACAGGC | 0.14 ± 0.01
69 | ACGGGTAG | -0.0489 ± 0.023
70 | ACCTCCAG | -0.0622 ± 0.097
71 | AAAAGCGT | 0.1914 ± 0.0012
72 | AAGCTATC | -0.0846 ± 0.015
73 | ATGTACGA | -0.0943 ± 0.036
74 | CAGGAACG | 0.116 ± 0.025
75 | GTAATTCA | -0.0412 ± 0.0055

Row | Sequence | PBM E-score of 8-mer
76 | GCCATGAC | -0.122 ± 0.13
77 | CTGAGAGA | -0.0256 ± 0.016
78 | ATCAGTGC | -0.0668 ± 0.09
79 | GTAACCGA | -0.0382 ± 0.012
80 | ATGAAGTG | 0.281 ± 0.019
81 | CCACAGCA | -0.0444 ± 0.0096
82 | ACCGCAAT | -0.153 ± 0.061
83 | CATCTTGC | -0.0155 ± 0.0057
84 | AACACGCG | 0.215 ± 0.018
85 | AGCGTAAA | -0.0535 ± 0.045
86 | ATGCTAAA | -0.104 ± 0.086
87 | CAAAAATC | -0.0709 ± 0.038
88 | GGTGCGTA | 0.271 ± 0.077
89 | AAAATTTG | -0.151 ± 0.019
90 | GGAGCACA | -0.242 ± 0.082
91 | AGCGCTCC | -0.217 ± 0.042
92 | ATGGTGTA | 0.127 ± 0.015
93 | GCGGATCA | 0.101 ± 0.047
94 | TCTCACCA | 0.372 ± 0.011
95 | CATATGCC | -0.0737 ± 0.014
96 | ATTTGCCA | 0.067 ± 0.077
97 | AGATAACT | 0.0647 ± 0.053
98 | AAGGGCCC | -0.261 ± 0.055
99 | ATCACGCG | 0.357 ± 0.012
100 | AAAAGGTG | 0.41 ± 0.0094

Row | Sequence | PBM E-score of 8-mer
101 | ATACTAGG | -0.153 ± 0.011
102 | CACAAGCA | 0.0133 ± 0.043
103 | GGGCAACA | 0.0214 ± 0.047
104 | GATGATAA | -0.0271 ± 0.067
105 | ATTCAAGG | -0.262 ± 0.017
106 | AACTGAGA | 0.0904 ± 0.049
107 | CCCAATCG | -0.0416 ± 0.088
108 | ACCAGCGT | 0.0263 ± 0.051
109 | AGCGTACA | -0.0903 ± 0.018
110 | ATCATGGG | -0.411 ± 0.03
111 | CCCCCGAG | -0.22 ± 0.0048
112 | AGGCCCGG | -0.341 ± 0.018
113 | AGAAGTTA | -0.0503 ± 0.027
114 | CTCAAATA | -0.326 ± 0.024
115 | GGTAAGAC | -0.224 ± 0.014
116 | ACAAGGCC | -0.0617 ± 0.1
117 | AGCTGGAT | 0.0494 ± 0.039
118 | CTTATACA | -0.104 ± 0.022
119 | CTGATTTA | -0.0945 ± 0.065
120 | ACCAATCC | 0.144 ± 0.12
121 | AAACTGGT | -0.0358 ± 0.091
122 | CCTTGAAC | -0.0925 ± 0.0075
123 | GACACTGA | 0.093 ± 0.019
124 | GAGTGTAC | -0.0659 ± 0.019
125 | GTAGCACA | 0.176 ± 0.068

Row | Sequence | PBM E-score of 8-mer
126 | AGAGACAT | -0.131 ± 0.031
127 | AGTGACGA | 0.329 ± 0.029
128 | AGAGTTTA | -0.0197 ± 0.012
129 | CACGTCCG | 0.228 ± 0.0099
130 | GGGGTTAA | -0.112 ± 0.0089
131 | CGGACGGA | -0.227 ± 0.06
132 | AACCGGAT | -0.215 ± 0.0027
133 | ATGTTCCG | -0.184 ± 0.06
134 | GATCATCC | -0.0523 ± 0.075
135 | ACAATTAG | 0.164 ± 0.074
136 | CCCGCACC | 0.311 ± 0.036
137 | CTCGCGCC | 0.412 ± 0.031
138 | AGCGACTA | 0.0344 ± 0.016
139 | CAAGGCTA | -0.057 ± 0.0029
140 | ACATCCTA | -0.151 ± 0.01
141 | ACTCTTTA | 0.0329 ± 0.022
142 | AATGCGTA | -0.041 ± 0.044
143 | GTGCGTGA | 0.316 ± 0.057
144 | CATGCAAC | 0.155 ± 0.0056
145 | AAAAGACC | -0.231 ± 0.024
146 | CCAGCGAC | 0.0269 ± 0.0024
147 | CTAATAAC | 0.014 ± 0.033
148 | AGTATAGG | -0.333 ± 0.028
149 | CTTGCATC | -0.151 ± 0.039
150 | ATGCCGCC | -0.131 ± 0.024

Row | Sequence | PBM E-score of 8-mer
151 | CTTGCGAA | 0.343 ± 0.019
152 | ACTGCGTC | -0.161 ± 0.039
153 | ATCGTCGG | 0.0554 ± 0.004
154 | ACTCGTTC | -0.0151 ± 0.017
155 | ACGGAAAT | -0.226 ± 0.042
156 | GAACGCAA | -0.0577 ± 0.0076
157 | AGGTTAGG | -0.111 ± 0.091
158 | AACAAAAA | -0.0702 ± 0.0031
159 | ACCCAGGT | 0.0937 ± 0.015
160 | TAGCACCA | 0.351 ± 0.0071
161 | GCGAGTCA | 0.203 ± 0.048
162 | CGCAACTC | 0.188 ± 0.039
163 | GTCGAATA | -0.1325 ± 0.00049
164 | CATAATGG | -0.0736 ± 0.0021
165 | AGACGGAG | -0.0855 ± 0.018
166 | ATACGCTA | -0.0905 ± 0.1
167 | GATATGAA | 0.131 ± 0.012
168 | CACAGCGA | -0.00739 ± 0.047
169 | CCGTTACC | 0.0662 ± 0.018
170 | ATCTTAGA | -0.172 ± 0.054
171 | ATTATGTA | -0.137 ± 0.016
172 | CACTAATG | 0.0999 ± 0.028
